The whole screen tested about 350,000 compounds, of which about 31,000 (8.9%) were called active. The inconclusive results got no clear call from the source; some entries with a clear call stand among them for comparison. Calls come from the whole dose curve; as a rule, active = well fitted inhibition curve with a large enough effect; inconclusive = small, poorly fitted or top-dose-only effect; inactive = no such curve, though single readings can be large or run the other way. A potency beside an inconclusive call is a rough fit, not a confirmed value.
Each molecule was assayed against Histone-lysine N-methyltransferase EHMT2 (Homo sapiens) (UniProt Q96KQ7) (assay: qHTS Assay for Inhibitors of Histone Lysine Methyltransferase G9a). Conditions: G9a H3K9 monomethylation, AlphaScreen, 2 h; activity, negative = inhibition: at 59 µM (top of the series) unless noted.
Chain of UniProt Q96KQ7 (Q96KQ7 whole entry, looked up): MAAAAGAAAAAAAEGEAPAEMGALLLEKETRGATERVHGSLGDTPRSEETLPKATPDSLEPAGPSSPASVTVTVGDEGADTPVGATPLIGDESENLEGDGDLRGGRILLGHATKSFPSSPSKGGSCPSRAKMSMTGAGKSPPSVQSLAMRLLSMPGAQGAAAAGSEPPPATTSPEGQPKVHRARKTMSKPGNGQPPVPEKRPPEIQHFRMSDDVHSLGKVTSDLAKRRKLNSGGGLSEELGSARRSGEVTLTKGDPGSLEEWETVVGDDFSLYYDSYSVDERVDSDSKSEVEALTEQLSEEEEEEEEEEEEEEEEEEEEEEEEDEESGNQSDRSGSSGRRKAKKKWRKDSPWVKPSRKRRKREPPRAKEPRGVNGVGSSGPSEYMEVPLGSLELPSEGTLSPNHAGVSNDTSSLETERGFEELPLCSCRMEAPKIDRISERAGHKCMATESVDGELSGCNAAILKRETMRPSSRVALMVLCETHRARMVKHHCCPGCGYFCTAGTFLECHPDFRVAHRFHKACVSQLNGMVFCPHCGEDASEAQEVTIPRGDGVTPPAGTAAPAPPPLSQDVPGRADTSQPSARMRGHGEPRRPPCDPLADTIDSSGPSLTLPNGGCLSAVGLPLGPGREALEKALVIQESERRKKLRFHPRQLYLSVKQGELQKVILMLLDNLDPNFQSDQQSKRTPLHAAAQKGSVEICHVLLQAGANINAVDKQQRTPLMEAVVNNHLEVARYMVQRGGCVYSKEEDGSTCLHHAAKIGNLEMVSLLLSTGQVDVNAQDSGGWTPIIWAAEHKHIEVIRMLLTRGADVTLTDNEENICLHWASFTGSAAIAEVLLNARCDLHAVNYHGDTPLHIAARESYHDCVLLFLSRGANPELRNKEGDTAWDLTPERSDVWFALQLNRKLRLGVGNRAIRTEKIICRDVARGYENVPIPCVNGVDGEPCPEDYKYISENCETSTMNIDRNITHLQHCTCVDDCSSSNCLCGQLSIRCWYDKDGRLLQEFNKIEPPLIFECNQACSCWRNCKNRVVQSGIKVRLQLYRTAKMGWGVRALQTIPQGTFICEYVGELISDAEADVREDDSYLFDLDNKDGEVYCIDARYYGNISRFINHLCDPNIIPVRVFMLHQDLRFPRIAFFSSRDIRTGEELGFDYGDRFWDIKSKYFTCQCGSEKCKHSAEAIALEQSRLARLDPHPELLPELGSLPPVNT
How it was run: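 AlphaScreen read-out: biotin-H3K9 peptide (500 nM) methylation by 20 nM enzyme with 20 uM SAM, 2 h at room temperature after 15 min compound preincubation; anti-monomethyl H3K9 antibody plus donor/acceptor beads, 10 min dark.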
% is set by controls: 0 for no effect and ±100 for the full control effect; potency is the fitted concentration of half-maximal effect; tags give direction and shape of the fitted curve.
Note: nearly all actives have a fitted effect of over 75% in size.

| SMILES | Potency | activity, negative = inhibition |
| --- | --- | --- |
| COC(=O)c1c(-c2cccs2)csc1NC(=O)c1cc(OC)c(OC)c(OC)c1 | inconclusive: 2.51 µM [inhibitor, full curve, poor fit] | – |
| CC(C)CCNC(=O)c1nn(C)c2c1CSc1ccccc1-2 | inconclusive: 12.6 µM [inhibitor, partial curve] | – |
| Cc1ccc2nc(SCC(=O)Nc3ccc4c(c3)CCC4)[nH]c2c1 | – | inactive: 4.27% |
| CN(C)S(=O)(=O)c1cc(C(=O)Nc2ccccc2C(=O)NC2CC2)ccc1Cl | inconclusive: 1.41 µM [inhibitor, single point] | – |
| CSc1ccc(-c2nc3cnccn3c2Nc2ccc3c(c2)OCO3)cc1 | active: 44.7 µM | – |
| O=C(c1ccc2c(c1)OCO2)N1CCCN(C(=O)c2ccc3c(c2)OCO3)CC1 | – | inactive: -2.17% [at 12.7 µM] |
| O=C(CCN1C(=O)c2ccccc2C1=O)NCc1ccco1 | – | inconclusive: -70.8% [inhibitor] |
| O=C(NC1CCCCCC1)c1ccc(CS(=O)c2ccc(Br)cc2)o1 (stereo not drawn) | – | inactive: -32.9% |
| COc1cccc(CNc2ccc(N3CCC(C)CC3)cc2)c1OC | inconclusive: 1.58 µM [inhibitor, full curve, poor fit] | – |
| CCCCn1c(N)c(N(CCOC)C(=O)CCNC(=O)c2ccc(Br)cc2)c(=O)[nH]c1=O | inconclusive: 44.7 µM [inhibitor, partial curve, poor fit] | – |
| Cc1ccc(C(=O)Nc2nc3c(s2)CCCC3)o1 | active: 56.2 µM | – |
| C/C(=N\Nc1nnc(C)c(=O)[nH]1)C(=O)O | – | inactive: 45.1% [at 2.33 µM] |
| O=C(CN1C(=O)NC2(CCCC2)C1=O)Nc1ccccc1 | – | inactive: 10% [at 102 µM] |
| COc1cc(OC)cc(C(=O)Nc2ccc(NC(=O)c3ccco3)c(Cl)c2)c1 | inconclusive: 39.8 µM [inhibitor, single point] | – |
| CCCN(CCC)S(=O)(=O)c1cc(Br)cc2c1N(C(=O)CC)CC2 | active: 50.1 µM | – |
| CCOc1cc(CNc2cccc3[nH]c(C)nc23)ccc1OC | active: 50.1 µM | – |
| O=C(NC(Cc1ccccc1)C(=O)O)/C(=C\c1ccco1)NC(=O)c1ccccc1Br (stereo not drawn) | inconclusive: 0.794 µM [inhibitor, full curve, poor fit] | – |
| O=C(N/N=C/c1c[nH]c2ccccc12)c1[nH]c2ccc(Br)cc2c1-c1ccccc1 | – | inactive: 20.9% |
| Cc1ccc(NC(=O)CSCc2cnn(-c3ccccc3)c2-n2cccc2)c(Cl)c1 | inconclusive: 35.5 µM [inhibitor, partial curve, poor fit] | – |
| Cc1cc(NC(=O)CSc2nnc3c(C)cc4cc(C)c(C)cc4n23)no1 | – | inactive: 14.1% [at 102 µM] |
| N#Cc1sc2nc(-c3ccccc3)cc(C(F)(F)F)c2c1N | – | inactive: 13% |
| OCc1ccc2c(c1)c(-c1ccc3c(c1)OCCO3)c(-c1ccccc1)n2-c1ccccc1 | – | inactive: -2.66% [at 0.501 µM] |
| CC(=O)Nc1ccc(S(=O)(=O)Nc2ccccc2C(=O)N2CCOCC2)cc1 | – | inactive: 11.1% [at 102 µM] |
| COc1ccc(CC(=O)Nc2ccc3nc(SC)sc3c2)cc1OC | inconclusive: 89.1 µM [inhibitor, partial curve, poor fit] | – |
| CCN(CC)S(=O)(=O)c1cccc(-c2n[nH]c(=S)n2CC(C)C)c1 | active: 3.16 µM | – |

| SMILES | Potency | activity, negative = inhibition |
| --- | --- | --- |
| Cc1cc(C)c(C)c(S(=O)(=O)N2CCN(C)CC2)c1C | inconclusive: 0.562 µM [inhibitor, partial curve, poor fit] | – |
| CCN(CC)Cc1c(O)ccc2c1O/C(=C\C=C\c1ccccc1)C2=O | inconclusive: 28.2 µM [inhibitor, partial curve, poor fit] | – |
| CC(OC(=O)c1cc[n+]([O-])cc1)C(=O)Nc1ccc(C(N)=O)cc1 (stereo not drawn) | inconclusive: 0.891 µM [inhibitor, single point] | – |
| Cc1cc(=O)oc2cc(OCC(O)Cn3ccnc3)ccc12 (stereo not drawn) | – | inconclusive: -56.6% [inhibitor] [at 0.501 µM] |
| Cc1nn(CC(=O)N2CCN(c3cccc(Cl)c3)CC2)c(=O)c2c1sc1ccccc12 | inconclusive: 39.8 µM [inhibitor, partial curve, poor fit] | – |
| Cc1cc(C)c2c3c(sc2n1)C(c1cccc(F)c1)C(C#N)=C(N)O3 (stereo not drawn) | inconclusive: 28.2 µM [inhibitor, single point] | – |
| CCOC(=O)c1c(CN(C)C)n(-c2ccccc2)c2cc(Br)c(O)cc12 | inconclusive: 56.2 µM [inhibitor, partial curve, poor fit] | – |
| CCS(=O)(=O)c1cccc(C(=O)N2CCN(c3nc4c(C)ccc(Cl)c4s3)CC2)c1 | – | inactive: -18.1% |
| O=C(O)/C=C\C(=O)Nc1ccccc1N1CCN(c2ccccc2)CC1 | active: 44.7 µM | – |
| CCOc1ccc(NC(=O)Cn2c(=O)c(CNc3ccccc3)cc3cc4c(cc32)OCCO4)cc1 | inconclusive: 11.2 µM [inhibitor, partial curve, poor fit] | – |
| O=C(CSc1nc(=O)n(CCCN2CCOCC2)c2c1CCC2)Nc1ccccc1F | – | inactive: -2.74% [at 102 µM] |
| Cc1nn(C)c(C)c1S(=O)(=O)N1CCCC(C(=O)NC2CCCCCC2)C1 (stereo not drawn) | – | inactive: 10.8% [at 102 µM] |
| O=C(O)CCC(=O)c1cccc2ccccc12 | – | inactive: 15.1% |
| Cc1ccc(S(=O)(=O)NCCc2nnc3ccc(SCC(=O)Nc4ccc(OC(F)(F)F)cc4)nn23)cc1 | – | inactive: -3.27% |
| Cc1ccccc1NC(=O)Cn1cnc2c(oc3nc4c(cc32)CCCC4)c1=O | inconclusive: 56.2 µM [inhibitor, single point] | – |
| O=C1COc2cc(S(=O)(=O)CCC(=O)N3CCN(c4ccccc4)CC3)c(Cl)cc2N1 | – | inactive: -1.33% |
| COc1ccc(N2CCN(C(CNC(=O)C(=O)NCc3ccc4c(c3)OCO4)c3ccco3)CC2)cc1 (stereo not drawn) | inconclusive: 4.47 µM [inhibitor, partial curve, poor fit] | – |
| O=C(c1ccncc1)N1CCC2(CCCN(c3cccc(-c4ccccc4)c3)C2)CC1 | – | inactive: 0.228% [at 12.7 µM] |
| COCCCNCCCOc1ccc(C)cc1Br | inconclusive: 8.91 µM [inhibitor, partial curve, poor fit] | – |
| CCOc1cc(CNc2ncc(-c3ccc(OC)cc3)n2C)ccc1O | active: 1.78 µM | – |
| O=C1c2ccccc2-c2c1cccc2C(=O)N1CCCCCC1 | – | inactive: -11.7% [at 102 µM] |
| CC(=O)Nc1ccc(NC(=O)C/C(C)=N/NC(=O)C(=O)Nc2ccc(C)c(Cl)c2)cc1 | active: 56.2 µM | – |
| Cn1cc(SCC(=O)Nc2ccc3c(c2)OCO3)c2ccccc21 | active: 25.1 µM | – |
| CCOC(=O)C1CCCN(C/C(O)=C(\C#N)c2nc(-c3ccccc3)cs2)C1 (stereo not drawn) | inconclusive: 44.7 µM [inhibitor, partial curve, poor fit] | – |
| Cc1ccc(S(=O)(=O)NCCC(=O)NCCSc2ccc(Br)cc2)cc1 | – | inactive: 22% [at 102 µM] |

| SMILES | Potency | activity, negative = inhibition |
| --- | --- | --- |
| COC(=O)c1c(O)c2ccccc2[nH]c1=O | inconclusive: 56.2 µM [inhibitor, partial curve, poor fit] | – |
| O=C(COc1ccccc1Cl)NCc1nc(-c2ccccc2)no1 | – | inactive: 65.7% [at 102 µM] |
| CCOC(=O)c1c(C)[nH]c(C)c1S(=O)(=O)N1CCC(C(=O)NCc2ccc(N(C)C)cc2)CC1 | inconclusive: 39.8 µM [inhibitor, partial curve, poor fit] | – |
| CCc1cc(C(=O)N2CCN(C(=O)c3ccccc3)CC2)sc1C | inconclusive: 50.1 µM [inhibitor, partial curve, poor fit] | – |
| Cc1ccc(Cn2c(=O)n(-c3ccc(C)c(C)c3)c(=O)c3c(C)c(C)sc32)cc1 | – | inactive: 15.9% |
| [O-]/[N+](=C\c1ccccc1)c1ccc(Br)cc1 | – | inactive: 9.13% [at 2.33 µM] |
| O=C(CSc1nnc(-c2ccncc2)n1-c1ccc(F)cc1)NC(=O)NCc1ccco1 | inconclusive: 39.8 µM [inhibitor, single point] | – |
| CC(=O)Nc1ccc(S(=O)(=O)Nc2cc([N+](=O)[O-])ccc2C)cc1 | inconclusive: 35.5 µM [inhibitor, partial curve, poor fit] | – |
| CCOC(=O)C1CCCN(Cc2ccccc2F)C1 (stereo not drawn) | active: 2.82 µM | – |
| O=C1C=C(O)CC(c2ccco2)C1 (stereo not drawn) | inconclusive: 25.1 µM [inhibitor, single point] | – |
| Cc1nc2ccccc2c2oc(C(=O)N3CCC(N4CCCCC4)CC3)cc12 | active: 70.8 µM | – |
| CN(C(=O)c1ccc(Br)cc1)C1CCS(=O)(=O)C1 (stereo not drawn) | inconclusive: 89.1 µM [inhibitor, single point] | – |
| COc1ccc(C(=O)NC2CCSc3ccccc32)cc1F (stereo not drawn) | – | inactive: -4.76% [at 102 µM] |
| CC(=O)Nc1ccc2nc(SCC(=O)NCCOc3ccccc3)sc2c1 | – | inactive: 10.6% |
| CCOc1ccc(OCC)c(NC(=O)c2csc3c2CCCC3)c1 | – | inactive: -25.6% |
| CCc1ccc(NC(=S)N(CCN(C)C)C(C)c2ccncc2)cc1 (stereo not drawn) | inconclusive: 89.1 µM [inhibitor, single point] | – |
| O=c1[nH]c(/C=C/c2ccc(Cl)cc2Cl)c([N+](=O)[O-])c(=O)[nH]1 | inconclusive: 63.1 µM [inhibitor, single point] | – |
| O=C(CCS(=O)(=O)c1ccccc1)Nc1nncs1 | inconclusive: 25.1 µM [inhibitor, single point] | – |
| Cc1ccc(NCCC(=O)c2cccs2)cc1 | active: 50.1 µM | – |
| CCOc1ccccc1Nc1nnc(Cc2ccccc2Cl)c(=O)[nH]1 | inconclusive: 11.2 µM [inhibitor, partial curve, poor fit] | – |
| CN(C)CCOc1ccccc1Cc1ccccc1 | inconclusive: 25.1 µM [inhibitor, single point] | – |
| CC(=O)N1c2c(cc(Br)cc2S(=O)(=O)NCc2ccccc2Cl)CC1C (stereo not drawn) | – | inactive: 6.14% |
| COc1ccc(NC(=O)c2cc(C)nc3c2c(C)nn3-c2cccc(Cl)c2C)c(OC)c1 | – | inactive: -29.5% |

Reference: PubChem BioAssay AID504332 (National Center for Advancing Translational Sciences (NCATS), 2011)
